Experimental data: paper PMC4615246 (Nucleus, 2015)

Target: T1, LacI-CFP-Nt Nup133 (human, UniProt Q8WUM0 16-820)
T1 sequence: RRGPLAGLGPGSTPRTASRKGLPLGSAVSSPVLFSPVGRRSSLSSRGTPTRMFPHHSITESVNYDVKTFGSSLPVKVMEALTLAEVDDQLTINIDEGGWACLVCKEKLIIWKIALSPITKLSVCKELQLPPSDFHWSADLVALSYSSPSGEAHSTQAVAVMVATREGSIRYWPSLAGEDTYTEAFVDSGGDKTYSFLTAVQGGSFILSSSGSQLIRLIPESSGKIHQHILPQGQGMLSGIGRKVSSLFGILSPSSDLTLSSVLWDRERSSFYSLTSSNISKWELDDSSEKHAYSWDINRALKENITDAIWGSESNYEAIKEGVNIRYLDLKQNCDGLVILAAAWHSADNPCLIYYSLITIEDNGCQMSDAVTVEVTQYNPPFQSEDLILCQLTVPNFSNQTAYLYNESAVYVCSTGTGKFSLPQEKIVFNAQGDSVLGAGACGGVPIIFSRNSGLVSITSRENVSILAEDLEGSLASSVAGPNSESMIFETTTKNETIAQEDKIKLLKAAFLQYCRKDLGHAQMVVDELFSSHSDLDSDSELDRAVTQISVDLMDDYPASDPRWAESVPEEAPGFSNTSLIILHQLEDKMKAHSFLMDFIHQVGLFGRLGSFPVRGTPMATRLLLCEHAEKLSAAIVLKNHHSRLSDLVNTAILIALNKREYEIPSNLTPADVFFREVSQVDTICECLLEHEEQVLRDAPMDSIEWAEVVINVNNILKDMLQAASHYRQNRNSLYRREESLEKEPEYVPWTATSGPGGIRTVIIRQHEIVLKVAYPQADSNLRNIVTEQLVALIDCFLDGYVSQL
Assay: LacI/LacO array recruitment in cells

B1: Pom121 (endogenous) (natural protein)
chain: MSPAAAAAGAGERRRPIASVRDGRGRGCGGPARAVLLGLSLVGLLLYLVPAAAALAWLTVGATAAWWGLSREPRGSRPLSSFVRKARHRRPLSSFVRKARHRRTLFASPLAKSTANGNLLEPRTLLEGPDPAELLLMGSYLGKPGPPQPAAAPEGQDLRDRPGRRPPARPAPRSPPPRSPPPRSPPPSPPTHRAHHVYPSLPTPLLRPSRRPSPRDCGTLPNRFVITPRRRYPIHQAQYSCLGVLPTVCWNGYHKKAVLSPRNSR[about 450 residues not shown]KQSFLFGTQNTSPSSPAAPAASSAPPMFKPIFTAPPKSEKEGPTPPGPSVTATAPSSSSLPTTTSTTAPTFQPVFSSMGPPASVPLPAPFFKQTTTPATAPTTTAPLFTGLASATSAVAPITSASPSTDSASKPAFGFGINSVSSSSVSTTTSTATAASQPFLFGAPQASAASFTPAMGSIFQFGKPPALPTTTTVTTFSQSLHTAVPTATSSSAADFSGFGSTLATSAPATSSQPTLTFSNTSTPTFNIPFGSSAKSPLPSYPGANPQPAFGAAEGQPPGAAKPALAPSFGSSFTFGNSAAPAAAPTPAPPSMIKVVPAYVPTPIHPIFGGATHSAFGLKATASAFGAPASSQPAFGGSTAVFFGAATSSGFGATTQTASSGSSSSVFGSTTPSPFTFGGSAAPAGSGSFGINVATPGSSTTTGAFSFGAGQSGSTATSTPFAGGLGQNALGTTGQSTPFAFNVSSTTESKPVFGGTATPTFGLNTPAPGVGTSGSSLSFGASSAPAQGFVGVAPFGSAALSFSIGAGSKTPGARQRLQARRQHTRKK
**Q.** Which “percent of transfected cells showing colocalization” value does the source give for B1 here?
**A.** 14%
